The values that follow come from the supplement of paper PMC10126150.

The subject of the series is ATP. The experiment in a line: switch fluorescence ratio, 500 uM ATP over buffer (Cy3 cluster intensity, sum of 5 cycles each) (fold (ratio)); higher = stronger signal-on switching upon ATP binding; sequences stand for … in TCGTCGGCAGCGTCAGATGTGTATAAGAGACAGTTTTTTTTTTTTTTTTTTTTTTTTT…TC. As to conditions: aptamer strand: ATP DNA aptamer (quencher-CACCTGGGGGAGTATTGCGGAGGAAGG + anchor), 100 nM annealed; ATP concentration: 500 uM; one replicate. In outline: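 Values give the fluorescence ratio for each switch-domain sequence, averaged from per-cluster ratios of summed target-cycle to summed buffer-cycle Cy3 intensity. The Cy3-labelled switching-strand clusters sat on a modified Illumina MiSeq flow-cell, were annealed to 100 nM quencher-labelled ATP aptamer, and were imaged in selection buffer, then after 15 min with 500 uM ATP at 22 °C. Five cycles ran with NaOH stripping and re-annealing between them, and clusters outside 100-1000 RFU were excluded.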

Values marked as one replicate rest on one cluster of the flow cell; about a third of the high ones do not repeat.
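Further: ATP exposure 15 min at 22 °C before imaging.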

As to CCTATTAGAT, the switch fluorescence ratio worked out at 1.04.

GCGACGCTTA: the switch fluorescence ratio stood at 2.5.

Regarding GCAGTTTAAC, the switch fluorescence ratio came out at 1.06.

Consider TGTGAAACAG, for which the switch fluorescence ratio amounted to 1.02.

As for TCGACTTTTA, the switch fluorescence ratio came to 1.1.

Take CATCGGCGAC: the switch fluorescence ratio came out at 3.09.

Regarding TGAAGTATTG, the switch fluorescence ratio turned out to be 1.01.

TCAATGTACA: the switch fluorescence ratio was determined as 1.01.

As for TCCATTCAAA, the switch fluorescence ratio stood at 0.999.

For the sequence GCCGCGGGGG, the switch fluorescence ratio was 0.968.

On to ACATAGCATC, for which the switch fluorescence ratio worked out at 1.79.

As to GCGGTTACTT, the switch fluorescence ratio came out at 0.993.

In the case of AGATTACTTA, the switch fluorescence ratio is 1.01.

Take AGTCACAGGA: the switch fluorescence ratio stood at 1.

With TATTGGTA, the switch fluorescence ratio turned out to be 0.953.

Take GATGTTGCGG: the switch fluorescence ratio stood at 0.928.

Turning to CGACCAGTTT, the switch fluorescence ratio amounted to 1.04.

As for GACCCATATC, the switch fluorescence ratio amounted to 1.06.

Consider GTTCTAATCC, for which the switch fluorescence ratio worked out at 1.

As to GCCTTTGGGA, the switch fluorescence ratio came to 1.03.

On to GGGAGTCAGT, for which the switch fluorescence ratio was found to be 1.03.

Consider ATGCGTGTCG, for which the switch fluorescence ratio turned out to be 1.02.

Turning to CATATCCAAC, the switch fluorescence ratio was 1.05.

As for ATTTGATAAC, the switch fluorescence ratio was determined as 0.964.

Turning to TATCTGTTAA, the switch fluorescence ratio was determined as 0.962.

Regarding GATACGTTG, the switch fluorescence ratio is 1.

TTTGGCAAC: the switch fluorescence ratio was 1.04.

Take AAACTAATT: the switch fluorescence ratio was determined as 0.987.

On to CTAACCCTTT, for which the switch fluorescence ratio is 1.03.

Consider GAATCGCCTT, for which the switch fluorescence ratio worked out at 1.01.

As for CCAGAATTCA, the switch fluorescence ratio came out at 1.

As for TGCCGTTGGG, the switch fluorescence ratio worked out at 1.01.

As for TGTGCTGATA, the switch fluorescence ratio came out at 1.01.

As for AAGAGATGCG, the switch fluorescence ratio was 0.954.

TCGTGATCGG: the switch fluorescence ratio was 0.979.

As for AGTTTTCCG, the switch fluorescence ratio came to 0.972.

In the case of AAGGAACATC, the switch fluorescence ratio came out at 0.999.

In the case of ATTGTAAGCT, the switch fluorescence ratio worked out at 1.02.

With GGCTGCTTG, the switch fluorescence ratio stood at 0.931.

Take GTGGTTTGAT: the switch fluorescence ratio stood at 1.01.

With GCTTATAAGG, the switch fluorescence ratio came to 1.01.

With GCGAGAACAG, the switch fluorescence ratio came out at 1.06.

For the sequence GGGATTGG, the switch fluorescence ratio was found to be 0.983.

Consider CTCTGAAACA, for which the switch fluorescence ratio was determined as 0.937.

Take GGTTCTGAGT: the switch fluorescence ratio worked out at 1.02.

As for ATAGGCAATG, the switch fluorescence ratio came to 1.06.

For the sequence GAAGCAGTAC, the switch fluorescence ratio stood at 1.23.

With GCTGTCCGAA, the switch fluorescence ratio is 1.03.

In the case of TACCTATGTA, the switch fluorescence ratio is 0.975.

As for TGGCGCTAGG, the switch fluorescence ratio turned out to be 0.968.

Turning to CTGTAGGGGT, the switch fluorescence ratio came to 0.988.

On to TAATATTTC, for which the switch fluorescence ratio was found to be 1.08.

GGCTTATACC: the switch fluorescence ratio was 1.05.

Turning to GTCCTCACAT, the switch fluorescence ratio is 1.06.

On to GTTATCTGCC, for which the switch fluorescence ratio stood at 1.02.

GAATACGACG: the switch fluorescence ratio was 1.03.

Regarding GGCGGTTAGC, the switch fluorescence ratio worked out at 0.983.

For the sequence GCTATTCTAC, the switch fluorescence ratio was found to be 1.06.

For the sequence AACCGGCTTT, the switch fluorescence ratio was 1.04.

As to GGTAGTTCGC, the switch fluorescence ratio worked out at 1.

On to TAAGGCAGAG, for which the switch fluorescence ratio came to 0.999.

As to GGTATTTCGG, the switch fluorescence ratio turned out to be 1.

Take ACGGACGATC: the switch fluorescence ratio worked out at 1.29.

On to CAGTAGAACT, for which the switch fluorescence ratio is 1.02.

Turning to CTCCTGCCTC, the switch fluorescence ratio worked out at 2.71.

For the sequence GATTCTTTTT, the switch fluorescence ratio is 1.03.

Turning to TATTCCTCG, the switch fluorescence ratio turned out to be 1.13.

Regarding GCGGTTGCGA, the switch fluorescence ratio is 0.976.

For the sequence GCGGGGAGG, the switch fluorescence ratio turned out to be 0.985.

As to CCCGTCGTAA, the switch fluorescence ratio amounted to 1.44.

As to ATGGGGTTT, the switch fluorescence ratio worked out at 0.982.

CGCTCGAAAT: the switch fluorescence ratio turned out to be 1.06.

With GCTGAGAGGT, the switch fluorescence ratio was 1.05.

Regarding CTAAGTTGTA, the switch fluorescence ratio was 1.

Turning to GAAGTCGATG, the switch fluorescence ratio amounted to 1.02.

With AAGACAAACG, the switch fluorescence ratio was determined as 1.03.

Take ACAAAAGTAG: the switch fluorescence ratio was found to be 1.03.

For the sequence GAACGGCCTG, the switch fluorescence ratio came out at 1.07.

With TAAGTGTTCC, the switch fluorescence ratio amounted to 1.04.

As for GAACGGTGCA, the switch fluorescence ratio amounted to 0.955.

AGGTTGCCCA: the switch fluorescence ratio is 1.03.

Turning to CCGCTTTTGG, the switch fluorescence ratio turned out to be 1.52.

On to GTTTACGTAA, for which the switch fluorescence ratio was 1.07.

As to TTTGTTGCGC, the switch fluorescence ratio came to 0.988.

On to AGTGGTTGC, for which the switch fluorescence ratio turned out to be 0.972.

On to TCAAATCGCC, for which the switch fluorescence ratio is 1.03.

CGCAGCAAGA: the switch fluorescence ratio amounted to 4.46.

In the case of GCTGTCTACA, the switch fluorescence ratio was determined as 1.01.

Regarding AGCGGCGTTC, the switch fluorescence ratio came out at 1.

As for TTAAAACAGG, the switch fluorescence ratio came out at 1.03.

Consider AGCTCACGCA, for which the switch fluorescence ratio came to 1.17.

In the case of GGGTTTCTAG, the switch fluorescence ratio was 1.04.

On to TTAGCGATAG, for which the switch fluorescence ratio is 1.23.

For GTTATAGGTT, the switch fluorescence ratio was determined as 0.957.

For the sequence TGCTACGTGT, the switch fluorescence ratio is 1.

For TGGGGGGC, the switch fluorescence ratio was determined as 0.966.

Regarding TTTAACCGGA, the switch fluorescence ratio amounted to 1.46.

As to AATGTGCGCC, the switch fluorescence ratio was 1.01.

With TATGAGGG, the switch fluorescence ratio turned out to be 1.02.

Consider GTACGCCTTC, for which the switch fluorescence ratio worked out at 1.06.

In the case of TGAGCCTCAG, the switch fluorescence ratio was 0.966.

For the sequence TCATTCCCAT, the switch fluorescence ratio was determined as 1.

TGCGTATTAC: the switch fluorescence ratio amounted to 1.88.

With GGAATCGACG, the switch fluorescence ratio worked out at 1.01.

Take AAAATACGAG: the switch fluorescence ratio was 1.12.

As to TTAAAGGAAC, the switch fluorescence ratio worked out at 0.983.

For the sequence TCTAATATCG, the switch fluorescence ratio amounted to 0.982.

Regarding GTGAAATT, the switch fluorescence ratio came to 0.997.

As for AGTGATGGTG, the switch fluorescence ratio was 0.959.

For TTGGGCGTCT, the switch fluorescence ratio is 1.01.

As for CGTTTCAAAT, the switch fluorescence ratio worked out at 1.03.

As for TGCCATCAGA, the switch fluorescence ratio came to 0.996.

AGGACGCAAT: the switch fluorescence ratio was 1.29.

Turning to ACACTTCTTA, the switch fluorescence ratio stood at 0.982.

Regarding GGACGTATGG, the switch fluorescence ratio was 0.987.

ATCTGTTGAG: the switch fluorescence ratio was determined as 0.979.

With CGCGGGCTCA, the switch fluorescence ratio was 1.08.

As to CAAGACGCGG, the switch fluorescence ratio came out at 0.997.

Consider AGTTTTATCT, for which the switch fluorescence ratio worked out at 0.956.

Take AGAAATTGCT: the switch fluorescence ratio worked out at 0.966.
